Laboratory results: ChEMBL document CHEMBL4888484, “Replenishing the malaria drug discovery pipeline: Screening and hit evaluation of the MMV Hit Generation Library 1 (HGL1) against asexual blood stage Plasmodium falciparum ,using a nano luciferase reporter read-out” (2022)
The whole screen tested about 150,000 compounds, of which about 540 (0.36%) showed an effect of 50% or more. This is one part of the list.

Tested on: Plasmodium falciparum
Experiment: Primary screen in NF54 nanoGlo assay, in single point, at 2uM, 72h; a lower Z score goes with more inhibition
Assay type: functional, Erythrocyte
Settings: timepoint 72 hour

SMILES | % Inhibition | Z score
Cn1c(C(=O)NCCc2ccccn2)cc2ccc(Cl)cc21 | -5% | 0.68
CC(C)(Cc1ccc(C(F)(F)F)cc1)C(=O)NCC#N | -17% | 1.71
O=C1OC2(CCN(C[C@H]3COCCO3)CC2)CN1CCOc1ccccc1 | -2% | 0.15
COc1ncc(CCNC(=O)[C@]2(C)CCOc3ccccc32)cn1 | -8% | 1.47
CC1CCCC(NC(=O)CN2CCC(O)(C(F)(F)F)C2)C1C (stereo not given) | -27% | 3.99
O=C(NCc1ccc(-c2cccc(Cl)c2)o1)N1CCN(CCO)CC1 | -13% | 1.17
COc1ccc(-c2cc(C(=O)Nc3ccncc3)c3ccccc3n2)c(OC)c1 | 2% | -0.25
CC(C)(C(=O)O)c1cccc(C(F)(F)F)n1 | -17% | 2.43
C[C@H]1CCCN(Cc2ccc(NC(=O)Cn3ccc(=O)[nH]c3=O)cc2)C1 | -2% | 0.24
O=C(O)c1cc(-c2c[nH]c3ccc(Cl)cc23)[nH]n1 | -17% | 2.06
C[C@@]1(C(=O)Nc2ccc(C(=O)N3CCOCC3)c(F)c2)CCCc2ccccc21 | -9% | 1.07
Cn1cc(C(=O)NC[C@H](O)c2ccc(-c3cccs3)s2)nn1 | 17% | -2.28
O=C(NCc1ccc(F)cc1Br)N[C@H]1CCCOC1 | -2% | 0.29
O=S(=O)(Nc1cnc(Oc2ccccc2)nc1)c1ccccc1F | -13% | 2.41
Nc1ncc(S(=O)(=O)NCc2cccs2)cn1 | -13% | 1.65
O=C(c1ccncc1F)N1CC(OC[C@H]2CCOC2)C1 | 12% | -1.61
O=C(CN1C(=O)COc2ccc(Cl)cc21)Nc1ccccc1-c1ccccc1 | -5% | 0.69
COc1ccc2nc(NC(=O)c3nn(-c4ccccc4OC)c(=O)c4ccccc34)sc2c1 | -9% | 1.37
c1cc([C@@H]2CCCCO2)oc1CN1CCc2nocc2C1 | -7% | 0.86
CC1C(N2CCCC2)CCN1C(=O)CCc1ccc2c(c1)OCCO2 (stereo not given) | 1% | -0.21
CC(C)Cc1nc(-c2cccc(-c3cn[nH]c3)c2)n(CCO)n1 | 0% | 0.02
CC(C)(NC(=O)c1cnc(-c2ncccn2)s1)c1nnn[nH]1 | 4% | -0.55

SMILES | % Inhibition | Z score
CC(=O)N1CCN(C[C@@H]2OC[C@H](NC(=O)c3ccccc3)[C@H]2O)CC1 | 0% | -0.02
N#CCCN(CC(F)(F)F)S(=O)(=O)c1cnn2ccccc12 | -6% | 1.14
Cc1cc(CN2Cc3c[nH]nc3[C@@H](C)C2)nc(C)n1 | -6% | 0.66
CN(C)S(=O)(=O)N[C@H]1CCOC[C@@H]1Oc1ccc(CO)cc1 | 1% | -0.12
COc1cccc(C(=O)N2CCN(C(=O)C[C@H](C)n3cccn3)CC2)c1 | -20% | 2.1
CC[C@@H](CO)N(Cc1cccnc1)C(=O)Cc1ncccc1C | -3% | 0.5
Cc1nn(C)c(C)c1CCCNC(=O)c1cnc2c(cnn2C)c1O | 25% | -2.84
CCCN1CCc2nc(-c3ccccc3)n(CC(=O)Nc3cc(C)ccc3OC)c(=O)c2C1 | -12% | 1.57
CC(C)Oc1cccc(C=Cc2nc(=O)cc[nH]2)c1 | -9% | 1.26
CC(=O)N1CCCC[C@H]1C1=CCCN(CCc2ccccn2)C1 | 2% | -0.4
Cc1nc2c(c(N[C@H]3C[C@@H](c4cc(=O)[nH]c(N(C)C)n4)C3)n1)CCC2 | 16% | -2.09
CC(=O)Nc1cc(C(=O)NCC2CCCCC2)cc2ncn(CCc3ccccn3)c12 | -8% | 1.03
COc1nn(C)cc1CNC(=O)[C@@H]1NCCOc2ccccc21 | -6% | 1.25
COc1cc(=O)n2c(c1C(=O)Nc1ccc(Cl)c(F)c1)CCCC2 | 0% | 0.05
CC1(C)[C@H](C(=O)Nc2ccc(OCc3ccccc3)cc2)CC[C@]1(C)C(=O)O | -12% | 1.62
c1ccc(CN2CCN(CCn3ccnc3C3CC3)CC2)cc1 | 2% | -0.31
COc1cc(C)c(S(=O)(=O)N(C)c2cnn(C)c2)cc1Cl | -2% | 0.29
O=C(c1cn(C[C@@H]2CC(F)(F)CN2C(=O)c2ccc3[nH]ccc3c2)nn1)N1CCOCC1 | 34% | -3.84
O=C(Nc1ccccc1F)N1CCC(n2cnc3ccccc3c2=O)CC1 | -5% | 0.62
COc1cnc(-c2noc(C3(C#N)CCCCC3)n2)cn1 | 34% | -3.87
COc1ccccc1CC(=O)NC1CC1 | 0% | -0.04
CN(C)C1CCN(C2CCCN(CC(C)(C)C)C2=O)C1 (stereo not given) | -6% | 0.83

SMILES | % Inhibition | Z score
COc1ccc(CN2Cc3nc[nH]c3C[C@H]2c2nc(-c3ccccn3)no2)cc1 | 23% | -2.72
COc1ccc(-c2cc(N3CCC[C@H](NC(=O)c4cnccn4)C3)[nH]n2)cc1 | -18% | 1.84
C[C@@H](C(=O)NCCc1ccc(S(N)(=O)=O)cc1)n1c2ccccc2c2cnn(C)c(=O)c21 | 2% | -0.37
CCC(CC)N(CCOC)S(=O)(=O)c1cc(Br)ccc1Br | -1% | 0.12
Cc1cnccc1CNC(=O)c1coc(COc2ccccc2)n1 | -9% | 1.26
CC(C)N1CCN(CCN(C)c2ccc([C@H]3CC[C@H](N(C)C(=O)c4ccc(Cl)cc4)CC3)cc2)CC1 | 3% | -0.39
CCn1cc(NC(=O)CC2CC3CCC2C3)cn1 (stereo not given) | -6% | 1.05
C[C@@H](CCc1ccccc1)NC(=O)c1cc2c(Cl)ccc3c2n1CCO3 | 37% | -1.1
CC(C)N(CCO)Cc1c[nH]nc1-c1ccc(-c2ccccc2)cc1 | -3% | 0.5
CCOC(=O)C1CCC(N2CCN(C3CCC(C(C)C)CC3)CC2)CC1 (stereo not given) | -3% | 0.43
C=CCn1ccnc1-c1ccccc1OCC | 4% | -0.73
COc1cc(Cl)c(C)cc1NC(=O)CN1CC[C@H](O)C1 | -5% | 0.93
CC(NC1CCN(c2ccc(Cl)c(F)c2)C1=O)C1CCN(CC(F)(F)F)CC1 (stereo not given) | -4% | 0.48
CC(C)(C)OC(=O)c1c(NC(=O)[C@@H]2CCCO2)nc2n1CCCC2 | -15% | 2.89
CCN1CC2(CCN(C(=O)c3ccon3)CC2)C[C@@H](c2ccccc2)C1=O | -6% | 1.04
CCCCn1nc(CC)nc1Cn1cccnc1=O | -1% | 0.18
Nc1ccc(C(=O)N2CCCC[C@@H]2CCc2ccccn2)cn1 | 3% | -0.43
O=C(CN1CCC[C@H]1C(=O)OCc1ccccc1)Nc1nncs1 | -17% | 2.37
O=C(N[C@H]1[C@@H]2COC[C@@H]21)c1c(Cl)cncc1Cl | 1% | -0.15
CCNC(=O)c1ccc(N(C)Cc2ccc(C)o2)nn1 | -10% | 1.32
O=C(Nc1c(F)cccc1Oc1ccccc1)[C@@H]1COCCO1 | -12% | 1.76
Cc1cc(=O)[nH]c(C)c1C(=O)NC(c1cnn(C)c1)[C@H]1C[C@H](O)C1 (stereo not given in full) | 2% | -0.41

SMILES | % Inhibition | Z score
Cn1ncc2c1CCCC2NCC(c1ccccc1)C(C)(C)CO (stereo not given) | -13% | 2.43
Cc1cc(C(=O)NCc2cncc(C3CC3)c2)n(C)n1 | -18% | 2.09
Clc1ccc([C@@H](NC2CCCCC2)c2ncon2)cc1 | -11% | 1.42
CC(C)NC(=O)N1CC(c2nc(-c3ccncc3)no2)C1 | -10% | 1.96
C[C@H](NC(=O)C1(C(F)(F)F)CCC1)c1ccc(Cl)cn1 | 7% | -0.99
COc1ccc(-c2nn(C(=O)OC(C)(C)C)c(C3CC3)c2N)cc1 | -4% | 0.5
COCC[C@H]1CN(C(=O)c2ccn(C)c2C)CCO1 | 5% | -0.67
CCCCOCC(=O)N1CCN(c2nncc3ccccc23)CC1 | -9% | 0.87
CC1CCN(C(=O)c2ccc(CN3C(=O)CNC3=O)cc2)C2CCCCC12 (stereo not given) | -6% | 1.09
Cn1nc(-c2ccccc2NC(=O)c2cc(OCc3ccccc3)ncn2)ccc1=O | -9% | 1.72
CCCNC(=O)NCc1nnc(C(=O)Nc2ccc3c(c2)OCO3)s1 | 26% | -3.03
N#Cc1ccc(C(=O)N[C@H]2CCCN(CC(F)(F)F)C2)s1 | 15% | -1.98
O=C(NCc1ccco1)N[C@H](CO)Cc1c[nH]c2ccccc12 | 3% | -0.38
COc1ccc([C@H]2C[C@@H]2C(=O)N2CCOC(c3ncon3)C2)cc1 (stereo not given in full) | -4% | 0.58
CCc1cnc(NCc2n[nH]c(=O)[nH]2)nc1 | -4% | 0.82
CC(C)COC(=O)NC[C@H]1CCN(C(=O)c2ccoc2)C[C@@H]1O | -7% | 0.8
CCOC(=O)c1cc(NC(=O)N2CCN(CC)CC2)c(C)nc1C | 11% | -1.27
CCN1c2cc(C(=O)Nc3ccc(Cl)cc3)ccc2C(=O)N2CCC[C@@H]21 | 10% | -1.27
Cn1cc2c(n1)CCC[C@@H]2NCc1cc(C(N)=O)c2n1CCCC2 | -11% | 1.75
